Source: the supplement of paper PMC4723716
± gives the uncertainty stated by the source. In all, about 9,900 compounds were measured (“viability index relative to DMSO control”: median about 1, lowest 2% from about 0.85 on). The list shows a part of the results.

These compounds were tested on Plasmodium falciparum NF54 stage V gametocytes (assay: viability index relative to DMSO control (fraction); higher = less gametocyte killing). Settings: 2.5 µM, library set: Broad Institute DOS, incubation time: 72 h.
Summary of the method: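 P. falciparum NF54 stage V gametocytes (serum-free medium, 0.75% gametocytemia, 1.25% hematocrit) were exposed to compound at 2.5 µM for 72 hr at 37°C under low oxygen, then stained with MitoTracker Red CMXRos and saponin for one to two hours. Red particles of 20–70 µm2 in one field per well were counted, and the viability index is that count scaled to the plate mean of solvent-only wells.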

Structure (SMILES) | viability index
C[C@@H]1CN([C@@H](C)CO)C(=O)c2cc(NC(=O)Nc3ccc(C(F)(F)F)cc3)ccc2O[C@@H](C)CCCCO[C@@H]1CN(C)S(=O)(=O)c1ccc(Cl)cc1 | 1.04 ± 0.038
COc1ccc(-c2ccc3n(c2=O)C[C@H]2[C@H](CO)[C@@H](C(=O)NCC4CC4)N(C(=O)NC(C)C)[C@@H]32)cc1 | 1.1 ± 0.03
CN(C)C(=O)c1cccc(-c2ccccc2[C@@H]2[C@H](C#N)N(C(=O)C3CCCCC3)[C@H]2CO)c1 | 1.03 ± 0.049
COc1ccc2c3c([nH]c2c1)[C@@H](CO)N(Cc1nccs1)C[C@]31CN(Cc2ccncc2)C1 | 1.02 ± 0.079
CCC(=O)N1CC(=O)N2[C@@H](CO)[C@H](c3ccc(C#CCC(C)C)cc3)[C@@H]2C1 | 0.947 ± 0.059
Cc1ccc(-c2ccc([C@@H]3[C@@H](CO)N4C(=O)CN(C(=O)NC(C)C)C[C@H]34)cc2)cc1 | 1.03 ± 0.15
COCC(=O)N1CC[C@@]2(CC1)CN(Cc1cc(F)ccc1F)[C@H](CO)c1c2c2ccc(OC)cc2n1C | 0.943 ± 0.028
O=C(C1CCC1)N1C[C@H]2[C@@H](c3ccccc31)[C@@H](CO)N2Cc1ccccc1 | 1.09 ± 0.15
CC[C@H]1C/C=C\C[C@H](CC)NC(=O)[C@H](C)CC(=O)N1 | 1.09 ± 0.071
CO[C@@H]1CN(C)C(=O)c2ccc(NC(=O)c3nc4ccccc4s3)cc2OC[C@@H](C)N(Cc2cccnc2)C[C@@H]1C | 1.04 ± 0.02
C/C=C/c1cccc(-c2nc(C(=O)NCc3cccc(OC)c3)cc3c2[C@H](CCO)N([S@@](=O)C(C)(C)C)C3)c1 | 1.05 ± 0.015
C[C@@H]1CN([C@@H](C)CO)C(=O)CCCn2cc(nn2)CO[C@H]1CN(C)C(=O)Nc1ccc2c(c1)OCO2 | 1.028 ± 0.0018
O=C(Nc1cccc(Cl)c1)N[C@H]1CC[C@@H](CCn2cc(Cc3ccccc3)nn2)O[C@H]1CO | 1.11 ± 0.036
CC(C)(C)[S@](=O)N1Cc2cc(C(=O)N[C@@H]3CCN(Cc4ccccc4)C3)nc(-c3cccc(-c4cccnc4)c3)c2[C@@H]1CCO | 1.063 ± 0.0066
CC(C)N(C[C@H]1[C@H](c2ccccc2)[C@@H](CO)N1S(C)(=O)=O)C(=O)CN(C)C | 0.955 ± 0.039
C[C@H]1CN([C@@H](C)CO)C(=O)CCCn2nncc2CO[C@@H]1CN(C)Cc1cccc2c1OCCCO2 | 1.083 ± 0.01
O=S(=O)(c1cccc(F)c1)N1CC[C@H]2[C@H](CO)Nc3ccc(C#Cc4ccccc4F)cc3[C@H]21 | 1.1 ± 0.012
C[C@H]1CN([C@@H](C)CO)C(=O)Cc2cc(NC(=O)C3CC3)ccc2O[C@@H]1CN(C)S(=O)(=O)c1cn(C)cn1 | 0.936 ± 0.19
CNC[C@H]1OCc2ccccc2-c2ccccc2C(=O)N([C@@H](C)CO)C[C@H]1C | 0.99 ± 0.12
C[C@@H](NC(=O)C[C@@H]1CC[C@@H]2[C@H](COc3ccc(NS(=O)(=O)c4ccc(Cl)cc4)cc3C(=O)N2C)O1)c1ccccc1 | 1.02 ± 0.025
C[C@@H]1CN([C@@H](C)CO)C(=O)CCCn2cc(nn2)CO[C@@H]1CN(C)C(=O)NC1CCCCC1 | 1.02 ± 0.025
CCCNC(=O)C[C@H]1CC[C@H]2[C@@H](COC[C@@H](O)CN2C(=O)Nc2ccc(Cl)c(Cl)c2)O1 | 1.16 ± 0.016
C[C@@H]1CN([C@@H](C)CO)C(=O)c2cccc(NC(=O)Nc3ccc4c(c3)OCO4)c2O[C@@H]1CN(C)S(C)(=O)=O | 1.02 ± 0.066

Structure (SMILES) | viability index
CS(=O)(=O)N1CC(=O)N2[C@H](C1)[C@H](c1ccc(C#CCC3CCCC3)cc1)[C@@H]2CO | 1.01 ± 0.065
COc1ccc(C[C@H]2CCn3nncc3COC[C@@H](CC(C)C)NC2=O)cc1 | 1.11 ± 0.12
CO[C@H]1CN(C)C(=O)c2ccc(NS(=O)(=O)c3ccc(C)cc3)cc2OC[C@H](C)N(C)C[C@H]1C | 0.972 ± 0.056
CCS(=O)(=O)Nc1ccc2c(c1)C(=O)N(C)[C@@H]1CC[C@H](CC(=O)NC3CCCCC3)O[C@@H]1CO2 | 0.905 ± 0.12
C/C=C/c1ccccc1[C@@H]1[C@@H](C#N)N(c2nc(CC)cs2)[C@H]1CO | 1.073 ± 0.0095
CNC[C@H]1Oc2c(NS(=O)(=O)c3ccc(Cl)cc3)cccc2C(=O)N([C@H](C)CO)C[C@@H]1C | 0.947 ± 0.029
CO[C@@H]1CN(C)C(=O)c2cc(NC(C)=O)ccc2OC[C@H](C)N(Cc2ccncc2)C[C@@H]1C | 1.03 ± 0.036
CC(C)NC(=O)N1CC[C@H]2[C@@H]1c1cc(C#Cc3ccccc3)ccc1N(C)[C@H]2CO | 1.08 ± 0.017
Cc1noc(C)c1NC(=O)Nc1ccc2c(c1)C(=O)N([C@@H](C)CO)C[C@@H](C)[C@H](CN(C)S(=O)(=O)c1ccc(F)cc1)O2 | 0.944 ± 0.2
C[C@@H]1CCCCO[C@@H](CN(C)C(=O)CCCN(C)C)[C@@H](C)CN([C@@H](C)CO)C(=O)c2cc(NS(=O)(=O)c3ccc(Cl)cc3)ccc2O1 | 1.15 ± 0.11
CN1C(=O)c2cc(NC(=O)NCc3ccccc3)ccc2OC[C@@H]2O[C@@H](CC(=O)NCC3CCCCC3)CC[C@H]21 | 0.988 ± 0.14
CC(C)NC(=O)N1CC2(C1)[C@H](c1ccccc1)[C@H](CO)N2Cc1cncnc1 | 1.03 ± 0.13
CO[C@@H]1CN(C)C(=O)c2ccc(NC(=O)c3ccno3)cc2OC[C@@H](C)N(S(C)(=O)=O)C[C@@H]1C | 1.11 ± 0.088
N#C[C@H]1[C@H](c2ccc(C3=CCCCC3)cc2)[C@@H](CO)N1S(=O)(=O)c1ccccc1 | 1.14 ± 0.022
C[C@H](CO)N1C[C@H](C)[C@@H](CN(C)S(=O)(=O)c2ccccc2C#N)OCc2cnnn2CCCC1=O | 1.034 ± 0.0085
CC(=O)N1CC[C@@H]2[C@H]1c1cc(-c3ccccc3)ccc1N[C@@H]2CO | 1.11 ± 0.075
C[C@@H]1CCCCO[C@@H](CN(C)C(=O)CCCN(C)C)[C@H](C)CN([C@@H](C)CO)C(=O)c2cc(NS(=O)(=O)c3ccc(Cl)cc3)ccc2O1 | 1.1 ± 0.073
C[C@H](CO)N1C[C@H](C)[C@@H](CN(C)C(=O)c2cc(Cl)cc(Cl)c2)OCc2ccccc2-c2ccccc2C1=O | 0.965 ± 0.052
O=C(C[C@H]1CC[C@H](NS(=O)(=O)c2ccc(F)cc2)[C@H](CO)O1)N1CCN(c2ccccc2)CC1 | 1.15 ± 0.059
COCC(=O)N1CC(=O)N2[C@H](C1)[C@H](c1ccc(C#CC3CC3)cc1)[C@@H]2CO | 1.032 ± 0.0074
O=C1N[C@@H](c2ccccc2)COCc2cn(nn2)CC[C@H]1Cc1cccc(Cl)c1 | 1.07 ± 0.039
O=C1[C@H](Cc2ccc(C(F)(F)F)cc2)CCn2nncc2COC[C@@H]2CCCCN12 | 1.06 ± 0.06
